# Hit rate of the full screen: of about 310,000 compounds, about 18,000 (5.8%) were called active. The inconclusive results got no clear call from the source; some entries with a clear call stand among them for comparison. The call rests on the fitted dose curve; in most records, active means well fitted inhibition curve with a large enough effect; inconclusive means small, poorly fitted or top-dose-only effect, or another doubt; inactive means no such curve, though single readings can be large or run the other way. No potency is given beside an inconclusive call; the fits are too rough.
# Assay: Primary qHTS for delayed death inhibitors of the malarial parasite plastid, 48 hour incubation
# Settings: P. falciparum luciferase growth in erythrocytes; series mostly up to 28.7 µM; activity change, negative = inhibition: at the top concentration
# Summary of the method: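 Firefly luciferase activity from engineered P. falciparum reports growth; inhibitors lower the luminescent signal. Cultures contained 2% hematocrit erythrocytes at 0.1% final parasitemia.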
# On the % scale 0 is the no-effect control and ±100 the full control effect; potency means the concentration at half of the fitted maximal effect; tags describe the fitted curve by direction and shape.
Compound,Potency,"activity change, negative = inhibition"
CSCCC(NC(=O)CCC(=O)OC1CC[C@H]2[C@@H]3CC[C@H]4CC(=O)CC[C@]4(C)[C@H]3CC[C@]12C)C(=O)O (stereo partly specified),"inconclusive [inhibitor, single point]",
COC(=O)/C=C/CSC1=N/C(=C/c2ccc(-n3cncn3)cc2)C(=O)N1,"inconclusive [inhibitor, single point]",
CC[N+](CC)(CCNC(=O)C(=O)NCC[N+](CC)(CC)Cc1ccccc1Cl)Cc1ccccc1Cl,"inconclusive [inhibitor, partial curve, poor fit]",
O=C(Nc1ccc(CN2CCCCC2)cc1)Nc1ccccc1Cl,"inconclusive [inhibitor, single point]",
CCOc1ccc(OCCNC(=O)C(NC(=O)c2c(F)cccc2F)C(C)C)cc1 (stereo unspecified),"inconclusive [inhibitor, single point]",
N=C(N)SCc1ccccn1,"inconclusive [inhibitor, single point]",
Cc1ccc(N2CC(C(=O)Nc3ccc(C)c(S(=O)(=O)N(C)C)c3)CC2=O)cc1 (stereo unspecified),"inconclusive [inhibitor, full curve]",
COc1ccc(CNC(=O)c2cccc(-c3ccc(C)c4ccccc34)n2)cc1,,inactive: -12.2%
COC(=O)c1ccc(C(=O)OCCCc2nc3ccc(N)cc3[nH]2)cc1,"inconclusive [inhibitor, single point]",
COC(=O)c1ccc(Cn2nnc3c(=O)[nH]c(C4CCCN(S(=O)(=O)c5ccccc5)C4)nc32)cc1 (stereo unspecified),"inconclusive [inhibitor, full curve]",
CCOC(=O)Cn1c(=O)oc2cc(S(=O)(=O)NC(C)(C)CC)ccc21,"inconclusive [inhibitor, single point]",
CCOc1cccc(-c2nn(-c3ccccc3)cc2/C=C(/C#N)C(=O)NCCCn2ccnc2)c1,active: 2.62 µM,
Cc1cc(OCC(=O)NCCCN(C)C)cc(C)c1Br,"inconclusive [inhibitor, full curve, poor fit]",
COc1ccccc1C(c1nnnn1C1CCCC1)N1CCN2CCCC2C1 (stereo unspecified),active: 13.1 µM,
CCOc1ccccc1N(CC(=O)Nc1ccccc1C(=O)N1CCOCC1)S(C)(=O)=O,,inactive: 3.25%
Cc1ccccc1N(CC(=O)N1CCCCCC1)S(C)(=O)=O,,inactive: 15.8%
Clc1ccc(-c2nnc3n2CCCS3)cc1,"inconclusive [inhibitor, single point]",
Clc1ccc(Nc2ncnc3c2cnn3-c2ccccc2)cc1,,inactive: -73.1%
CN1/C(=C/c2cc[n+](C)c3ccccc23)C=Cc2ccccc21,"inconclusive [inhibitor, partial curve]",
O=C(CSc1nnc(NC(=O)c2ccccc2F)s1)NCc1ccco1,,inactive: 118%
COc1ccccc1NC(=O)c1cc2c(CO)cnc(C)c2oc1=Nc1ccc(OC)c(OC)c1,"inconclusive [inhibitor, full curve, poor fit]",
COc1ccc(N2C(=O)N[C@@H](Cc3ccccc3)C2=O)cc1OC,,inactive: -6.3%

Compound,Potency,"activity change, negative = inhibition"
Cc1ccc2cc(CN(CC(C)C)S(=O)(=O)c3ccccc3)c(=O)[nH]c2c1,"inconclusive [inhibitor, single point]",
CCOC(=O)c1c(NC(=O)C2=COCCO2)sc2c1CCN(C(=O)OC)C2,"inconclusive [inhibitor, partial curve, poor fit]",
O=C(/C=C/c1ccccc1Cl)N1CCOCC1,,inactive: 8.44%
COc1ccccc1N1CCN(C(=O)c2sc3nc(C)nc(N4CCN(c5ccccn5)CC4)c3c2C)CC1,"inconclusive [inhibitor, partial curve]",
COC(=O)CC1C(=O)NCCN1C(=O)c1ccc(S(=O)(=O)N2CCOCC2)cc1 (stereo unspecified),"inconclusive [inhibitor, full curve, poor fit]",
O=C(CN(Cc1cccs1)C(=O)CNC(=O)c1ccco1)NC1CCCCC1,,inactive: 9.12%
CC(=O)Nc1ccc(NC(=O)C(C)OC(=O)C2CCCCC2)cc1 (stereo unspecified),,inactive: 7.1%
OC1(c2ccc(Cl)cc2)CN(c2ccccc2)C2=[N+]1CCS2 (stereo unspecified),"inconclusive [inhibitor, single point]",
Cc1ccc(S(=O)(=O)N2CCC(=O)N(CCOC(=O)Nc3cccc(Cl)c3)CC2)cc1,,inactive: -21.8%
O=C(Nc1ccccc1N1CCOCC1)c1cc(-c2ccco2)nc2ccccc12,"inconclusive [inhibitor, single point]",
CCC1=NNC(=O)C(CC(=O)Nc2ccccc2)c2cc(OC)c(OC)cc21 (stereo unspecified),"inconclusive [inhibitor, partial curve]",
O=C(CC1C(=O)NCCN1Cc1ccc(F)cc1Cl)NCc1ccon1 (stereo unspecified),,inactive: 4.1%
Cn1c(CNC(=O)c2ccco2)nnc1SCC(=O)N1CCN(c2ccccc2F)CC1,"inconclusive [inhibitor, single point]",
CC1CC(C)CN(C(=O)COC(=O)CCCN2C(=O)c3cccc4cccc(c34)C2=O)C1 (stereo unspecified),,inactive: -6.63%
CCCc1cc(C(=O)Nc2ccc(F)c(Cl)c2)no1,,inactive: 152%
COc1ccc(CCNC(=O)c2ccc(Cl)c(S(=O)(=O)N3CCCCCC3)c2)cc1,"inconclusive [inhibitor, single point]",
COc1ccc(CCNC(=O)c2cc(C(C)C)on2)cc1OC,,inactive: 3.35%
O=C(/C=C/c1cccc(F)c1)Nc1nccs1,,inactive: 191%
COc1ccc(Cl)cc1NC(=O)CN(C)C(=O)c1cc(-c2cccs2)nn1-c1ccccc1,"inconclusive [inhibitor, partial curve, poor fit]",
Cc1ccc(N/C(N)=N/c2nc(CSc3nnc(C)s3)cc(=O)[nH]2)c(C)c1,"inconclusive [inhibitor, single point]",
COC(=O)[C@]1(Cc2ccccc2)N[C@H](c2ccc(-c3ccc(F)cc3)cc2)[C@@H]2C(=O)N(C)C(=O)[C@@H]21,"inconclusive [inhibitor, partial curve, poor fit]",
O=C(NCCCNC(=O)c1ccc(-c2cccc(Cl)c2)o1)c1cnccn1,"inconclusive [inhibitor, full curve, poor fit]",

Compound,Potency,"activity change, negative = inhibition"
Cc1ccc(C(=O)N2CCN(S(=O)(=O)c3ccccc3C#N)CC2)cc1S(=O)(=O)N1CCOCC1,"inconclusive [inhibitor, single point]",
Cc1ccc(S(=O)(=O)N2CCN(c3ccc(N4CCOCC4)nn3)CC2)cc1[N+](=O)[O-],"inconclusive [inhibitor, partial curve]",
Cc1cc2nc3n(c2cc1C)CC1CC(C(=O)NCc2ccco2)N(C)C31 (stereo unspecified),"inconclusive [inhibitor, single point]",
CNC(=S)N/N=C/c1c(C)nn(-c2ccc(F)cc2)c1Cl,"inconclusive [inhibitor, single point]",
CCCCC(=O)NNC(=S)NC(=O)C(c1ccccc1)c1ccccc1,"inconclusive [inhibitor, single point]",
COc1ccc(CNC(=O)CSc2ccsc2[N+](=O)[O-])cc1,"inconclusive [inhibitor, single point]",
CC1CCN(S(=O)(=O)c2ccc(NC(=O)[C@@H]3CCCN3C(=O)c3cccs3)cc2)CC1,"inconclusive [inhibitor, single point]",
O=C(N/N=C/c1ccc(O)cc1)c1[nH]c2ccc(Br)cc2c1-c1ccccc1,,inactive: 6.82%
CCn1c(C(=O)N2CCCC(C(=O)NCCCc3ccccc3)C2)cc2sccc21 (stereo unspecified),"inconclusive [inhibitor, single point]",
CC(C)NC(=O)CSc1ccccc1C(=O)N1CCN(S(=O)(=O)/C=C/c2ccccc2)CC1,"inconclusive [inhibitor, single point]",
O=C(NCCNc1ccc([N+](=O)[O-])cc1C(F)(F)F)c1ccccc1F,"inconclusive [inhibitor, single point]",
CN(Cc1ccccc1)C(=O)c1cccc(N2C(=O)C3CC=CCC3C2=O)c1 (stereo unspecified),,inactive: -11.1%
Cc1cc(NC(=O)CCC(=O)N(Cc2ccco2)C2(C(=O)NC3CCCCC3)CCN(C)CC2)no1,"inconclusive [inhibitor, full curve, poor fit]",
CC1(C)CC(=O)C([N+](=O)[O-])=C(NCCCC(=O)O)C1,,inactive: 17.1%
CCOC(=O)N1CCC(NC(=O)c2cc(COc3ccc(F)cc3Cl)on2)CC1,"inconclusive [inhibitor, partial curve, poor fit]",
COc1ccc(-c2c[n+]3c(n2-c2c(C)n(C)n(-c4ccccc4)c2=O)CCCCC3)cc1,"inconclusive [inhibitor, single point]",
CCCCCCC(C)(C)c1ccc([C@@H]2C[C@H](O)CC[C@H]2CCCO)c(O)c1,active: 4.65 µM,
CCN(Cc1ccccc1)C(=O)c1ccc(C)c(S(=O)(=O)N2CCCCC2)c1,"inconclusive [inhibitor, single point]",
CC[n+]1c(/C=C/c2c[nH]c3ccccc23)ccc2cc(C)ccc21,"inconclusive [inhibitor, full curve]",
Cc1cc(C)c(Cn2c3ccccc3c3cnn(CC(=O)NCCN4CCOCC4)c(=O)c32)c(C)c1,"inconclusive [inhibitor, single point]",
CCOc1ccccc1Nc1ccc(C(=O)O)cc1N,,inactive: 34.5%
CCOC(C(=O)OCC(O)CN(CC)CC)(c1ccccc1)c1ccccc1 (stereo unspecified),active: 10.4 µM,
